PubChem BioAssay AID2101 (National Center for Advancing Translational Sciences (NCATS), 2009)
Hit rate of the full screen: of about 330,000 compounds, about 300 (0.091%) were called active. Inconclusive means that the source gave no clear call. Such entries were picked first, then a sample of the others. Calls follow the shape of the dose curve; as a rule, active = well fitted inhibition curve with a large enough effect; inconclusive = small, poorly fitted or top-dose-only effect, or effect the other way, or another doubt; inactive = no such curve, though single readings can be large or run the other way. No potency is given beside an inconclusive call; the fits are too rough.

Molecular target: Lysosomal acid glucosylceramidase (Homo sapiens) (UniProt P04062)
Test: qHTS Assay for Inhibitors and Activators of N370S glucocerebrosidase as a Potential Chaperone Treatment of Gaucher Disease;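 as to activity change, negative = inhibition: 0% = full enzyme activity and -100% = no enzyme basal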
Conditions: N370S GC spleen homogenate, 4MU-glucoside fluorescence; activity change, negative = inhibition: at 59.4 µM (top of the series) unless noted
Potency is read from the fitted curve at half-maximal effect.

| Compound | Potency | activity change, negative = inhibition |
| --- | --- | --- |
| O=C1CC(=O)Nc2cc(S(=O)(=O)Nc3ccc(Cl)c(C(F)(F)F)c3)ccc2N1 | inconclusive [inhibitor, partial curve, poor fit] | – |
| CCOC(=O)c1cc(CC)sc1NC(=O)COC(=O)C1CCC1 | inconclusive [activator, partial curve] | – |
| O=C1CSC(=S)N1Cc1cccnc1 | – | inactive: -3.92% |
| Nc1cc(Cl)ccc1C(=O)OCC(=O)N1CCCC1 | inconclusive [activator, partial curve] | – |
| Cc1sc2nc(SCC(=O)NCc3ccco3)n(C)c(=O)c2c1C | inconclusive [activator, partial curve] | – |
| CCc1ccc(NC(=O)c2cc(S(=O)(=O)N3CCCC3)c[nH]2)cc1 | inconclusive [activator, partial curve] | – |
| O=C(COc1ccccc1Cl)Nc1ccc2c(c1)OCO2 | inconclusive [activator, partial curve] | – |
| Cc1nc2ccc(N)cc2c(=O)n1Cc1ccc(Cl)cc1 | – | inactive: 9.89% |
| CCOC(=O)C1CCCN(C(=O)C2CCC(CNS(=O)(=O)c3ccc(NC(C)=O)cc3)CC2)C1 (centres undefined) | inconclusive [inhibitor, single point] | – |
| CC(=O)c1cccc(NC(=O)CSc2ccc(-c3ccco3)nn2)c1 | – | inactive: -4.2% |
| O=C1COc2ccc(C(=O)NC3CC3)cc2N1 | – | inactive: 6.95% |
| CCCCNc1c(-c2ccc(SC(C)CC)c(OC)c2)nc2ccc(C)cn12 (centres undefined) | inconclusive [inhibitor, partial curve] | – |
| CN(C)CCNC(=O)c1cccc(S(=O)(=O)Nc2ccccc2F)c1 | inconclusive [activator, partial curve, poor fit] | – |
| COc1ccc2ccccc2c1/C=N/NC(=O)c1ccccc1F | inconclusive [activator, partial curve] | – |
| COCCCn1c(C(=O)N2CCOCC2)cc2c(=O)n3ccccc3nc21 | inconclusive [activator, single point] | – |
| Cc1c(NC(=O)CSc2ccc(Cl)cc2)cccc1-c1nc2cc(Cl)ccc2o1 | inconclusive [inhibitor, partial curve, poor fit] | – |
| COc1cc2c(cc1NC(=O)C(C)Sc1ccc(C)cc1)oc1ccccc12 (centres undefined) | inconclusive [activator, partial curve] | – |
| COCCSc1nnc(NC(=O)CSc2ccccc2)s1 | – | inactive: -14.3% |
| Cc1cc(OCC(=O)NC(Cc2c[nH]c3ccc(O)cc23)C(=O)O)c2c(C)c(C)c(=O)oc2c1 (centres undefined) | – | inactive: -5.09% |
| Cc1cccc(NC(=S)NC(=O)CCc2ccccc2)c1C | – | inactive: 1.76% |
| CCC1Sc2ccc(S(=O)(=O)CCC(=O)Nc3cccc(Br)c3)cc2NC1=O (centres undefined) | inconclusive [inhibitor, single point] | – |
| CCOCC(=O)Nc1cc(-c2cn3cccnc3n2)ccc1C | inconclusive [activator, single point] | – |
| Cc1cccc(CNc2nc(-c3cccnc3)nc3ccccc23)c1 | inconclusive [inhibitor, partial curve] | – |

| Compound | Potency | activity change, negative = inhibition |
| --- | --- | --- |
| Cc1ccc(S(=O)(=O)N(C)/N=C/c2ccc(N(C)C)cc2)cc1 | – | inactive: -4.29% |
| Cc1cc(N2CCOCC2)nc2ccc(NC(=S)NCCC(C)C)cc12 | inconclusive [activator, single point] | – |
| Cn1c(N)c(C(=O)COC(=O)C2CCCC2)c(=O)n(C)c1=O | – | inactive: -7.64% |
| Cc1cc(Cl)ccc1NNC(=O)c1cccs1 | – | inactive: 9.39% |
| CC(C)(C)OC(=O)[C@H](Cc1ccccc1)NC(=O)c1nc[nH]c1C(=O)NCC(=O)OCc1ccccc1 | inconclusive [activator, single point] | – |
| Cc1ccc(-c2[nH]c3ccccc3c2SCCNC(=O)c2cc3ccccc3oc2=O)cc1 | inconclusive [activator, partial curve] | – |
| O=S(=O)(Nc1ccc(-c2nc3cccnc3s2)cc1)c1ccc(Cl)s1 | – | inactive: 11.1% |
| O=C(CSc1ccc(F)cc1)Nc1ccc(Br)cc1 | – | inconclusive: 30.3% [activator] |
| COc1cc2c(cc1OC)C1N(CC2)C(=O)CCC12C(=O)CCCC2=O (centres undefined) | inconclusive [inhibitor, single point] | – |
| Cc1ccc(NC(=O)CN(C)C(=O)CSc2nc(C)cs2)cc1 | inconclusive [activator, partial curve, poor fit] | – |
| CN(C)CCNC(=O)c1cc2c(s1)-c1ccccc1OC2 | inconclusive [activator, partial curve] | – |
| COc1ccccc1/C=C/C(=O)NCCC1=CCCCC1 | inconclusive [activator, single point] | – |
| CC(C)/C(=N\NC(=O)Nc1ccccc1)c1ccccc1 | inconclusive [activator, full curve, poor fit] | – |
| O=C1c2cc(Cl)ccc2OC2(CCNCC2)C12CC(c1ccc(Cl)cc1)=NO2 (centres undefined) | inconclusive [inhibitor, partial curve] | – |
| O=C(Cc1ccc(Cl)cc1)NNC(=O)c1cnccn1 | – | inconclusive: 26.3% [activator] |
| Cc1cccc(-c2nnc3n2N=C(c2ccc(Br)cc2)CS3)c1 | inconclusive [inhibitor, single point] | – |
| N#CC1=C(N)n2c(s/c(=C\c3cccs3)c2=O)=C(C#N)C1c1cccs1 (centres undefined) | – | inactive: 14% |
| Cc1cccc(NC(=O)CSc2nc3ccc(NC(=O)CSc4nnnn4-c4ccccc4)cc3s2)c1C | inconclusive [inhibitor, single point] | – |
| CCC(C)c1ccccc1OCCCN(C)Cc1ccccc1 (centres undefined) | inconclusive [inhibitor, single point] | – |
| O=C(NCC1CCCO1)c1ccc2c(c1)N(Cc1ccc(F)cc1)CCS2 (centres undefined) | inconclusive [activator, partial curve] | – |
| Cc1nc(N=Nc2ccc(S(=O)(=O)O)cc2S(=O)(=O)O)c(COP(=O)(O)O)c(C=O)c1O | inconclusive [inhibitor, single point] | – |
| CCCc1cc(=O)oc2c(C)c(OC(C)C(=O)NCCN3CCOCC3)ccc12 (centres undefined) | inconclusive [inhibitor, partial curve] | – |
| Cc1ccc(NS(=O)(=O)c2ccc(C(=O)NCCCN3CCCC3=O)cc2)cc1 | inconclusive [inhibitor, single point] | – |

| Compound | Potency | activity change, negative = inhibition |
| --- | --- | --- |
| COc1ccc2c(c1)[C@H]1[C@H](CO2)[C@H](c2ccccc2)[C@]2(C)C(=O)Nc3ccccc3C(=O)N12 | inconclusive [activator, single point] | – |
| CN(C(=O)c1cccc(C(=O)N(C)c2ccccc2)c1)c1ccccc1 | – | inactive: -11.4% |
| Cc1c(C(=O)OCC(=O)Nc2ccc(S(N)(=O)=O)cc2)oc2c1ccc1ccccc12 | – | inconclusive: 33% [activator] |
| CC(C)Cc1nnc(NC(=O)CSc2nc(-c3ccccc3)cc(=O)[nH]2)s1 | inconclusive [activator, partial curve] | – |
| CCCCCCSc1ccc(-c2nc3ccc(C)cn3c2NCc2ccccc2)cc1 | inconclusive [inhibitor, partial curve] | – |
| COC(=O)c1c(N(S(C)(=O)=O)S(C)(=O)=O)sc2c1CCN(c1ncc(C(F)(F)F)cc1Cl)C2 | inconclusive [activator, partial curve] | – |
| CCOC(=O)CSc1nc2cc(OCC)ccc2cc1C#N | – | inactive: 7.93% |
| COc1ccc(CCNC(=O)/C=C/c2ccco2)cc1 | – | inactive: -11.3% |
| C/C(CCC(=O)OC[C@H]1O[C@H](C#Cc2ccccc2)C=C[C@@H]1Oc1ccc(C)cc1)=N\O[C@@H](C)CN1CCCCc2nc(C)c(C)cc21 | inconclusive [inhibitor, partial curve] | – |
| COc1cc(CC2COC(c3ccc(O)c(OC)c3)C2COC(C)=O)ccc1O (centres undefined) | – | inactive: -5.54% |
| CCOC(=O)c1c(C)[nH]c(-c2csc(N)n2)c1C | inconclusive [inhibitor, partial curve] | – |
| N#C/C(=C/c1ccc(F)cc1)C(N)=S | – | inactive: 15.9% |
| O=C(c1cccc(-n2cnnn2)c1)N1CCOCC1 | inconclusive [inhibitor, single point] | – |
| CCC(C)n1cnc2c(c1=O)c1nc3ccccc3nc1n2Cc1ccc2c(c1)OCO2 (centres undefined) | inconclusive [activator, partial curve] | – |
| CC(C)Oc1ccc(-c2nc(NCC3CCCO3)c3ccccc3n2)cc1 (centres undefined) | inconclusive [inhibitor, partial curve, poor fit] | – |
| CCN1/C(=C/C(C)=O)Sc2ccc(OC)cc21 | – | inconclusive: 27.6% [activator] |
| CCOc1ccc(S(=O)(=O)Nc2ccc(Cl)cn2)c(C)c1C | inconclusive [inhibitor, partial curve] | – |
| COc1ccc(-c2nc3ccccn3c2/N=C/c2ccc(OC)c(OC)c2)cc1O | inconclusive [inhibitor, single point] | – |
| COc1ccc(-c2cc(C(=O)O)nc3ccc4ccccc4c23)cc1OC | – | inactive: 16.1% |
| O=C1C=CC2(OCCCO2)C(Br)=C1 | – | inactive: -4.94% [at 12.8 µM] |
| Cc1ccc(-c2nn(-c3ccccc3)cc2CO)o1 | – | inactive: 4.82% |
| CC1(C)CC(=O)C2=C(C1)c1c(ccc3ccccc13)NC2c1ccc(OCC(=O)O)cc1 (centres undefined) | inconclusive [activator, partial curve] | – |
| Cc1nc(Cl)cc(N/N=C/c2ccc(O)cc2O)n1 | inconclusive [inhibitor, full curve] | – |
